Assay [1] concerns the target T1, recombinant BCAM containing a C-terminal human IgG domain (UniProt P50895).
T1 sequence (chain, fully glycosylated): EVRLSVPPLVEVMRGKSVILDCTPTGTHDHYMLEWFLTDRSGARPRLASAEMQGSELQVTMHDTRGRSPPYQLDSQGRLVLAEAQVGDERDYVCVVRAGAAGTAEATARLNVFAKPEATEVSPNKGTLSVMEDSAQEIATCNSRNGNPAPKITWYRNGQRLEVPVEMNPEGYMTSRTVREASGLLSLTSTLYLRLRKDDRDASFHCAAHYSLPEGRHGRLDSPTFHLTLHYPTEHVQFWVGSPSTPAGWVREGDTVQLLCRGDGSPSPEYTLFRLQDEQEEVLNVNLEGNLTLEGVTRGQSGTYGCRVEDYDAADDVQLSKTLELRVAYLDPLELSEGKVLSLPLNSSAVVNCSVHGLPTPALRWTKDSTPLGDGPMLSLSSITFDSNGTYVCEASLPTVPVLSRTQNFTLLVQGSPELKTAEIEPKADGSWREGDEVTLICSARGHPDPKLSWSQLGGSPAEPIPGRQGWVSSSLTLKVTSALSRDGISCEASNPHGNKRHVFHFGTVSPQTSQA
Put plainly: SPR; Biacore, anti-human IgG antibody coupled to CM5 chip, rBCAM with C-terminal human IgG domain (0.2 µM) captured on lane 2, GST-CNF proteins (1 µM) as analyte over both lanes, RU corrected for lane 1; both purified.

Assay [2] has as its target T2, recombinant Lu/BCAM stably expressed on K562 cells (K562-Lu/BCAM) (UniProt P50895).
T2 sequence: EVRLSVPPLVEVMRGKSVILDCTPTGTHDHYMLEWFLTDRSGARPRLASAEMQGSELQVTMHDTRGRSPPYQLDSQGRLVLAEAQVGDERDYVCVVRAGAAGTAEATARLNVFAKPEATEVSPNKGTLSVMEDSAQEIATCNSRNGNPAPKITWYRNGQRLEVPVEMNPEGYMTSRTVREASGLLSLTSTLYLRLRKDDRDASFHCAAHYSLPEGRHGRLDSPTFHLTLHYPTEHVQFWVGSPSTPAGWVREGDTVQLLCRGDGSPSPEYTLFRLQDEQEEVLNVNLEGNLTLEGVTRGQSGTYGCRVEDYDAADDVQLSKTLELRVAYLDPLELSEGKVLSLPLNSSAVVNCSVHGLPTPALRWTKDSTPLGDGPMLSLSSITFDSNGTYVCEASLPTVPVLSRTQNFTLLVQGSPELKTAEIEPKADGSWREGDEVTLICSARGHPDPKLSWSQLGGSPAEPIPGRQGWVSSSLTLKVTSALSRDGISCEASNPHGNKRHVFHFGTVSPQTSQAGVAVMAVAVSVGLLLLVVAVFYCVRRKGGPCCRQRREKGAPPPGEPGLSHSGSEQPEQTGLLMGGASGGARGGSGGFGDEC
In words: flow cytometry on cells; only the binder purified.

Assay [3] deals with GST-CNF1 (full-length toxin) (Escherichia coli) (UniProt Q47106). In words: far-Western, overlay or dot blot; GST-CNFs, GST-CNF fragments and GST (5 µl of 3 µM) spotted on nitrocellulose, rBCAM overlaid (6 µM, 1 h, room temperature by the legend; 5 nM in TBST, 30 min, 4°C by the methods), detected with anti-Lu/BCAM antibody; both purified.
Assay [4] deals with GST-CNF1 N-terminal fragment (aa 1-342) (Escherichia coli) (UniProt Q47106). Described as above.
Assay [5] addresses GST-CNF1-(426-1014) (Escherichia coli) (UniProt Q47106). The assay is described as above.
In assay [6] the target is GST-CNF1-(709-1014) (Escherichia coli) (UniProt Q47106). The assay is described as above.
The target in assay [7] is GST-CNF1-(720-1014) (Escherichia coli) (UniProt Q47106). The description is as above.

No constants are given. Whether binding was seen depends on the method and setting. Some results given as binding are weak or reduced against the parent protein; the word gives no strength.

For the molecule “GST-CNF1 N-terminal fragment (aa 1-342) (from UniProt Q47106 1-342) (domain or fragment)”, in assay [1], the binding entry is reported as “no binding (tested: 1 µM)”.

Regarding “GST-CNF1-(426-1014) (from UniProt Q47106 426-1014) (domain or fragment)”, the binding entry in assay [1] is recorded as “binds”.

In the case of “DyLight488-labeled GST-CNF1 (from UniProt Q47106 1-1014)”, the binding result in assay [2] is “binds”.

B1: recombinant BCAM containing a C-terminal human IgG domain (Fc fusion, UniProt P50895)
chain: T1 sequence (chain, fully glycosylated)
modifications: fully glycosylated
B1: the binding entry in assay [3] is reported as “binds”; in assay [4], “no binding (tested: 6 µM rBCAM (legend); 5 nM (methods))”; in assay [5] it was “binds”; in assay [6] it was “binds”; in assay [7] it was “binds”.

B2: PNGaseF-treated deglycosylated recombinant BCAM (Fc fusion, UniProt P50895)
chain: T1 sequence (chain, fully glycosylated)
modifications: N-glycans removed with PNGaseF (runs at 67 kDa instead of 84 kDa)
As to B2, the binding result in assay [3] was “binds”.

Source of the values: publication PMC3894216 (PLoS Pathogens, 2014).
